Data on 68 molecules can be found in PubChem BioAssay AID2528 (National Center for Advancing Translational Sciences (NCATS), 2010).

Several values for one entry are separate records, joined by “and”; a condition that tells them apart may be missing. Equal values may be shown once. Among all 350,000 compounds or so, about 700 (0.2%) were called active. Calls come from the whole dose curve; as a rule, active = well fitted inhibition curve with a large enough effect; inconclusive = small, poorly fitted or top-dose-only effect; inactive = flat fitted curve, though single readings scatter. The entries are a selection whose mix differs from that of the whole data set. The source holds several records for some structures; these can differ, active in one and inactive in another.
Potency is the fitted concentration of half-maximal effect.

UniProt P54132, sequence (P54132 whole entry, looked up): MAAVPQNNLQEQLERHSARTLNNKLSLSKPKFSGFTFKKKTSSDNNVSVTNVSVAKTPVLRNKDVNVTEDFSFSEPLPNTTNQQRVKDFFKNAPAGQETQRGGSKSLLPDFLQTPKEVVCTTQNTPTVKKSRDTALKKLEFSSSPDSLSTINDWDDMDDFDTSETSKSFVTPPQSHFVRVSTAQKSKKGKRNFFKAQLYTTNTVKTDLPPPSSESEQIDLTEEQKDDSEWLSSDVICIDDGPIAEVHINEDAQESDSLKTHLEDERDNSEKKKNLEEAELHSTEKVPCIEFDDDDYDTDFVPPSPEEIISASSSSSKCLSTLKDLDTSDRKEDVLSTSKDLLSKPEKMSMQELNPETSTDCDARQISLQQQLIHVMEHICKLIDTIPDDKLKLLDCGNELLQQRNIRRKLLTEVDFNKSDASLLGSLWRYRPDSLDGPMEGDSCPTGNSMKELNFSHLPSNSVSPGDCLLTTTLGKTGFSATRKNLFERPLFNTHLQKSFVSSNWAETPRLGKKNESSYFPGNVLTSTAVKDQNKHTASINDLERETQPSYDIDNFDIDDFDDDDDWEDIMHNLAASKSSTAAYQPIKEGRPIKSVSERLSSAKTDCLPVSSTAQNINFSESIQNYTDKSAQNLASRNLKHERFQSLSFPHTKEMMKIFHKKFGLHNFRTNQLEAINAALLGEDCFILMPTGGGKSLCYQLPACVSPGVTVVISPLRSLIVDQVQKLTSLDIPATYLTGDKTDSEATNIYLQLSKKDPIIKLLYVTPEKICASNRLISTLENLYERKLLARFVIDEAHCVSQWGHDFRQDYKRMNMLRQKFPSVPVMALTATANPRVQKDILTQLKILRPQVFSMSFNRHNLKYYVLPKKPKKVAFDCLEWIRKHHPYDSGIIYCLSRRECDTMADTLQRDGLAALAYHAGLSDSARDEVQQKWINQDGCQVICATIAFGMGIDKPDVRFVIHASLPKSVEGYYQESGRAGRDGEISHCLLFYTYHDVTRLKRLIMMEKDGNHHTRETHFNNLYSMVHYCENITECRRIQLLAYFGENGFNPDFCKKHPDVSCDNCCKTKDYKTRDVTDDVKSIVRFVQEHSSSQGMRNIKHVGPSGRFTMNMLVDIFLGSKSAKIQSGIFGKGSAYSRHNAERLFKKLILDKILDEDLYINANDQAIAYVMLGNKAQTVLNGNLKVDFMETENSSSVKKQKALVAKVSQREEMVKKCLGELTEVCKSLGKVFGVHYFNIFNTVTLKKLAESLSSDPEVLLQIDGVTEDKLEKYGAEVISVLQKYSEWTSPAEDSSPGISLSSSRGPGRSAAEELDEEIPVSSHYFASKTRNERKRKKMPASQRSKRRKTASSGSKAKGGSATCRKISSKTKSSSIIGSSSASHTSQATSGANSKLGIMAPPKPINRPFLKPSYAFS

The test concerns the target RecQ-like DNA helicase BLM (Homo sapiens) (UniProt P54132). The test can be described thus: qHTS Assay for Inhibitors of Bloom's syndrome helicase (BLM).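 For activity change, negative = inhibition: plate controls were vehicle for no effect and no enzyme for full effect.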 Note: nearly all actives have a fitted effect of over 35% in size. The following applies: recombinant BLM DNA unwinding, fluorescence dequenching; series mostly up to 56.1 µM; activity change, negative = inhibition: at the top concentration. From the text:
Survival of cells and the faithful propagation of the genome depend on elaborate mechanisms of detecting and repairing DNA damage. Treatment of advanced cancer relies on radiation therapy or chemotherapy, which kill cancer cells by causing extensive DNA damage. It is often found, that cancer cells develop resistance to therapy through enhanced activity of DNA repair functions; this has led to an increased interest in developing drugs that interfere with DNA repair, which could sensitize cancer cells to conventional therapy.
This validation qHTS assay pertains to human BLM, which is important in resolving abnormal DNA structures formed during replication or homologous recombination. Shutting down the expression of BLM leads to chromosomal instability and higher radiation sensitivity in cultured cells.
The validation assay was a fluorescence quenching based kinetic qHTS for BLM Helicase DNA unwinding. The activity was measured as ATP-dependent separation of a 20-bp DNA duplex extended by 30-nt single-stranded tails (forked duplex). The forked DNA substrate was tagged with rhodamine fluorophore (carboxytetramethyl rhodamine, TAMRA) and BHQ-2 (Black Hole Quencher 2) dark quencher. Strand separation results in an increase in the fluorescence of TAMRA (excitation 525 nm, emission 598 nm). This substrate construct operates in a red-shifted region where very few compound library members have been noted to fluoresce (PubChem AIDs 593 and 594). An additional feature of the assay is the inclusion of 2.5 ug/ml poly (dIdC), to reduce interference by compounds such as DNA intercalators, a major source of false inhibitors.
Ian Hickson, University of Oxford
Opher Gileadi, Structural Genomics Consortium, University of Oxford
Screening Center PI: Austin, C.P.
Screening Center: NIH Chemical Genomics Center [NCGC]
Three uL of reaction buffer (25 mM Tris-HCl (pH 8.0), 5 mM NaCl, 2 mM MgCl2, 1mM DTT, 0.01% Tween- 20, and 2.5 ug/ml poly(dI-dC), including enzyme (50 nM BLM), were dispensed into a 1536-well Greiner black assay plate via solenoid-valve based nanoliter dispensers. Compounds (23 nl each in columns 5-48) and control (23 nl each in column 2 as dose-response) were transferred via a Kalypsys pintool equipped with a 1536-pin array. The plates were incubated for 15 min at room temperature, and then 1 ul of substrates (200 nM DNA and 2 mM ATP, final concentrations) was added to start the reaction. The plate was transferred into a ViewLux high-throughput CCD imager where the reaction progress was measured in a discontinuous kinetic mode (two reads spaced 2 hours apart, with intermediate room temperature incubation of the covered assay plate) by using standard red-fluorescence optics (excitation filter 525 nm, emission filter 598 nm). Enzyme-free and vehicle (DMSO) controls were included for signal normalization.
A general note: In qHTS, concentration-response curves come from the screen itself.
In the case of `CC(C)(C)c1ccc(S(=O)(=O)/C=C\C#N)cc1`, the “activity change, negative = inhibition” value was inactive: -5.57%.

Regarding `COC(=O)c1cc(O)cc(OC)c1Oc1cc(C)cc(O)c1C(=O)O`, the Potency is active: 8.91 µM. Still for that read-out and setting: then `C[C@](N)(Cc1ccc(O)c(O)c1)C(=O)O`, with “inactive”; and `CN(CCC#N)C(=O)COC(=O)c1c2c(nc3ccccc13)/C(=C/c1ccco1)CC2`, with active: 14.1 µM.

Take `CN(C)[C@@H]1C(=O)C(C(N)=O)=C(O)[C@]2(O)C(=O)C3=C(O)c4c(O)ccc(Cl)c4[C@H](O)[C@H]3C[C@@H]12`: the “activity change, negative = inhibition” value was inactive: -1.58%. As for `CCCCCCCCCCCCCCC[C@H](O)[C@@H](N)CO`, the “activity change, negative = inhibition” value was inactive: -16.7%. Take `CCCn1c(=O)[nH]c(=O)c2[nH]cnc21`: the Potency result is “inactive”. Still for that read-out and setting: the same measure for `CN/C(=C\[N+](=O)[O-])NCCSCc1ccc(CN(C)C)o1`: “inactive”. Turning to `Cn1c(=O)[nH]c2ncn(C)c2c1=O`, the “activity change, negative = inhibition” value is inactive: 1.4%. For `NC1CCN(c2cccc(Cl)n2)CC1`, the Potency result is “inactive”. As for `COc1cc(NCc2ccc3nc(N)nc(N)c3c2C)cc(OC)c1OC`, the “activity change, negative = inhibition” value was inactive: -24.8%.

Turning to `Cc1ccc(S(=O)(=O)N[C@@H](Cc2ccccc2)C(=O)CCl)cc1`, the “activity change, negative = inhibition” value was inactive: -10.1%.

With `CC(C)NCC(O)COc1ccc(CCOCC2CC2)cc1` (stereo not drawn), the Potency result was “inactive”. The same measure, in the same setting: then `COc1cc(/C=C/C(=O)Nc2nc3ccc(S(=O)(=O)N(C)C)cc3s2)cc(OC)c1OC`, with active: 5.01 µM. For `CC12CCC3c4ccc(O)cc4CCC3C1CCC2=O` (stereo not drawn), the “activity change, negative = inhibition” value was inactive: -3.91%. The same measure, in the same setting: the same measure for `CC(=O)N[C@@H](Cc1c[nH]c2ccccc12)C(=O)OCc1cc(C(F)(F)F)cc(C(F)(F)F)c1`: inactive: -16.3%.

Regarding `NC/C=C/C(=O)O`, the “activity change, negative = inhibition” value is inactive: 5.7%. As to `N[C@@H](CO)C(=O)O`, the Potency result was “inactive”.

Take `CC1=C(CC(=O)O)c2cc(F)ccc2/C1=C/c1ccc(S(C)=O)cc1` (stereo not drawn): the “activity change, negative = inhibition” value is inactive: -3.92%.

For the molecule `COC(=O)C1C(O)CCC2CN3CCc4c([nH]c5ccccc45)C3CC21` (stereo not drawn), the “activity change, negative = inhibition” value was inactive: -1.42%. On to `Cc1ccc2c(c1C)NC(C(=O)O)C1CC=CC21` (stereo not drawn), for which the Potency is active: 17.8 µM. Turning to `COc1ccc(C)cc1Nc1nc(N)c2cc(OC)c(OC)cc2n1`, the Potency was active: 20 µM. Take `O=C(NCc1ccco1)c1cccn2c(=O)c3cc4ccccc4cc3nc12`: the Potency was active: 20 µM. For `NS(=O)(=O)c1cc2c(cc1Cl)NC=NS2(=O)=O`, the Potency result is “inactive”. On to `Cn1c(=O)c2[nH]c(-c3ccccc3)nc2n(C)c1=O`, for which the “activity change, negative = inhibition” value was inactive: -1.04%. Take `O=C(N/N=C1/C(=O)c2cccc3cccc1c23)c1ccc(Cl)cc1`: the Potency was active: 10 µM. Regarding `NC(N)=NC(=O)Cc1c(Cl)cccc1Cl`, the Potency result was “inactive”. For the molecule `O=c1oc2ccccc2c2oc3cc(O)c(O)cc3c12`, the Potency result is “inactive and active: 10 µM”. For the molecule `CNC1=C(Cl)C(=O)c2ccncc2C1=O`, the Potency was active: 17.8 µM.

In the case of `COc1ccc(-c2nc3c(c(SCC(=O)Nc4ccc(C(=O)O)cc4)n2)Cc2ccccc2O3)cc1`, the Potency is active: 7.08 µM.

On to `NC/C=C\C(=O)O`, for which the “activity change, negative = inhibition” value was inactive: 1.23%. For the molecule `NCCc1cnc[nH]1`, the Potency result is “inactive”. As to `NCCCC(=O)O`, the Potency result was “inactive”. `COc1ccc2nc(-n3c(O)c(C4=c5ccccc5=NC4=O)[nH]c3=S)sc2c1`: the Potency was active: 20 µM. As for `CCCC1OC2CC3C4CCC5=CC(=O)C=CC5(C)C4C(O)CC3(C)[C@]2(C(=O)CO)O1` (stereo partly drawn), the “activity change, negative = inhibition” value is inactive: -10.2%. `COc1ccc(-c2cc(=O)oc3c(O)c(O)ccc23)cc1`: the Potency is active: 10 µM. As to `CCOC(=O)c1cc2c(=O)n3ccccc3nc2n(Cc2ccco2)c1=NC(=O)c1ccc(OC)cc1`, the “activity change, negative = inhibition” value is inactive: -2.45%. Turning to `COc1ccc2c(c1OC)C(=O)O[C@H]2C1c2c(cc3c(c2OC)OCO3)CCN1C` (stereo partly drawn), the Potency result is “inactive”. `NC(N)=NC(N)=Nc1cccc(Cl)c1`: the Potency result was “inactive”.

Regarding `C[C@@](N)(Cc1ccc(O)c(O)c1)C(=O)O`, the Potency result was “inactive”. `CCn1ncc(Cl)c1C(=O)Nc1ccc2c(c1)CCC2`: the Potency was active: 25.1 µM. In the case of `CC[C@]1(O)C[C@H]2CN(CCc3c([nH]c4ccccc34)[C@@](C(=O)OC)(c3cc4c(cc3OC)N(C=O)[C@H]3[C@@](O)(C(=O)OC)[C@H](OC(C)=O)[C@]5(CC)C=CCN6CC[C@]43[C@@H]65)C2)C1`, the “activity change, negative = inhibition” value is inactive: 3.39%. `N[C@H](Cc1cnc[nH]1)C(=O)O`: the “activity change, negative = inhibition” value was inactive: -4.39%. On the same count and under the same terms, then `COC(=O)[C@@H]1C2CC3c4[nH]c5cc(OC)ccc5c4CCN3CC2C[C@H](OC(=O)c2cc(OC)c(OC)c(OC)c2)C1OC` (stereo partly drawn), with inactive: -12.7%; and `CC(=O)OCC(=O)[C@@]1(O)CCC2C3CCC4=CC(=O)CCC4(C)C3C(=O)CC21C` (stereo partly drawn), with inactive: -0.919%. For the molecule `Oc1ccc(/C=C/c2cc(O)cc(O)c2)cc1`, the Potency result was “inactive”. For `COC(=O)[C@@H]1[C@@H]2C[C@H]3c4[nH]c5ccccc5c4CCN3C[C@@H]2CC[C@@H]1O`, the Potency result was “inactive”. As to `Oc1c(Cl)cc(Cl)c(Cl)c1Cc1c(O)c(Cl)cc(Cl)c1Cl`, the “activity change, negative = inhibition” value was inactive: -13.2%. Regarding `CCCc1c(-c2ccc(O)cc2)nn(-c2ccc(O)cc2)c1-c1ccc(O)cc1`, the Potency entry was “inactive”. In the case of `COc1ccc(CNCCC(c2ccccc2)c2ccc3c(c2)OCO3)cc1` (stereo not drawn), the “activity change, negative = inhibition” value was inactive: -2.75%.

Regarding `O=C1c2sc3nc4n(c(=O)c3c2CCC1Br)CCCCC4` (stereo not drawn), the Potency was active: 25.1 µM. The same measure, in the same setting: the same measure for `O=c1[nH]c2cc([N+](=O)[O-])c([N+](=O)[O-])cc2[nH]c1=O`: “inactive”. Take `CCC1Cc2cc(O)ccc2C2=C1c1ccc(O)cc1CC2CC` (stereo not drawn): the “activity change, negative = inhibition” value is inactive: -10.2%. With `CC(=O)/C(C)=N\O`, the “activity change, negative = inhibition” value is inactive: 5.22%. Regarding `COc1ccc(NC(=S)Nc2ccc3nsnc3c2)cc1`, the Potency was active: 3.98 µM. Consider `COC(=O)Nc1nc2ccc(C(=O)c3cccs3)cc2[nH]1`, for which the Potency result is “inactive”. As to `Nc1ccn([C@H]2CC[C@@H](CO)O2)c(=O)n1`, the Potency result was “inactive”.

With `NC[C@](O)(CS(=O)(=O)O)c1ccc(Cl)cc1`, the “activity change, negative = inhibition” value was inactive: 4.69%.

Consider `O=Cc1ccc2oc3nc4n(c(=O)c3c(=O)c2c1)CCCS4`, for which the Potency was active: 28.2 µM.

As to `COc1cccc(-c2cc(=O)c3ccccc3o2)c1N`, the “activity change, negative = inhibition” value was inactive: -1.78%. With `CN(C)CCOC(C)(c1ccccc1)c1ccccn1` (stereo not drawn), the Potency entry was “inactive”. `O=C(C1CCCCC1)N1CC(=O)N2CCc3ccccc3C2C1` (stereo not drawn): the Potency result was “inactive”.

On to `CC(C)Cn1c(N)c(C(=O)COC(=O)c2cc(-c3ccco3)nc3ccccc23)c(=O)n(C)c1=O`, for which the “activity change, negative = inhibition” value was inactive: 2.58%. As to `Nc1nc2ccc(OC(F)(F)F)cc2s1`, the Potency result was “inactive”.

As to `Oc1cc(O)c2c(c1)O[C@H](c1ccc(O)c(O)c1)[C@H](O)C2`, the Potency entry was “inactive”.

`O=C(CCN1CCN(c2ccccc2)CC1)N/N=C/c1ccc(O)c(O)c1O`: the Potency was active: 11.2 µM. In the case of `O=C(O)c1cc(=O)cc(C(=O)O)[nH]1`, the “activity change, negative = inhibition” value was inactive: -2.83%. Consider `Cc1ccc(NC(=O)CN2C(=O)S/C(=C/c3ccc(O)c([N+](=O)[O-])c3)C2=O)cc1C`, for which the Potency was active: 25.1 µM.
